# Laboratory results as given in the supplement of paper PMC8728848.
# Some of the results follow.
# B1: LTL (Lotus tetragonolobus), P19664 (protein)
# chain: VSFNYTEFKDDGSLILQGDAKIWTDGRLAMPTDPLVNNPKTTRSAGRALYATPVPIWDSATGNVASFVTSFNFLFVIRELKYTPTDGLVFFLAPVGTEIPSGSTGGFLGIFDGSNGFNQFVAVEFDSYHNIWDPKSLRSSHVGIDVNSIMSLKAVNWNRVSGSLEKATIIYDSQTNILSVVMTSQNGQITTIYGTIDLKTVLPEKVSVGFSATTGNPEREKHDIYSWSFTSTLKEPEEQA
# What was measured:
# Assay in all cases: glycan array binding signal (z-score within array); higher = stronger binding
# Conditions in all cases: glycan notation: IUPAC condensed, linker removed
# [1] = target: GlcNAc(b1-2)Man(a1-3)[GlcNAc(b1-2)Man(a1-6)]Man(b1-4)GlcNAc(b1-4)[Fuc(a1-6)]GlcNAc
# How it was run: (§1)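 Columns mapping to the same glycan were averaged after glycan names were converted to IUPAC-condensed notation. The data come from 3228 arrays in the Consortium for Functional Glycomics database, limited to those with an available protein sequence. Binding is reported as a within-array Z-score averaged across arrays of one protein sequence and across linkers.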
# [2] = target: GlcNAc(b1-2)Man(a1-3)[GlcNAc(b1-4)][GlcNAc(b1-2)Man(a1-6)]Man(b1-4)GlcNAc(b1-4)GlcNAc
# How it was run: as §1
# [3] = target: GlcNAc(b1-2)Man(a1-3)[GlcNAc(b1-4)][GlcNAc(b1-2)Man(a1-6)]Man(b1-4)GlcNAc(b1-4)[Fuc(a1-6)]GlcNAc
# How it was run: as §1
# [4] = target: GlcNAc(b1-2)[GlcNAc(b1-4)]Man(a1-3)[GlcNAc(b1-2)Man(a1-6)]Man(b1-4)GlcNAc(b1-4)GlcNAc
# How it was run: as §1
# [5] = target: GlcNAc(b1-2)[GlcNAc(b1-4)]Man(a1-3)[GlcNAc(b1-4)][GlcNAc(b1-2)Man(a1-6)]Man(b1-4)GlcNAc(b1-4)GlcNAc
# How it was run: as §1
# [6] = target: GlcNAc(b1-2)[GlcNAc(b1-4)]Man(a1-3)[GlcNAc(b1-4)][GlcNAc(b1-2)[GlcNAc(b1-6)]Man(a1-6)]Man(b1-4)GlcNAc(b1-4)GlcNAc
# How it was run: as §1
# [7] = target: GlcNAc(b1-2)[GlcNAc(b1-4)]Man(a1-3)[GlcNAc(b1-4)][GlcNAc(b1-2)[GlcNAc(b1-6)]Man(a1-6)]Man(b1-4)GlcNAc(b1-4)[Fuc(a1-6)]GlcNAc
# How it was run: as §1
# [8] = target: GlcNAc(b1-2)[GlcNAc(b1-6)]Man(a1-6)[GlcNAc(b1-2)Man(a1-3)]Man(b1-4)GlcNAc(b1-4)GlcNAc
# How it was run: as §1
# [9] = target: GlcNAc(b1-2)[GlcNAc(b1-6)]Man(a1-6)[GlcNAc(b1-2)Man(a1-3)]Man(b1-4)GlcNAc(b1-4)[Fuc(a1-6)]GlcNAc
# How it was run: as §1
# [10] = target: GlcNAc(b1-2)[GlcNAc(b1-6)]Man(a1-6)[GlcNAc(b1-4)][GlcNAc(b1-2)Man(a1-3)]Man(b1-4)GlcNAc(b1-4)GlcNAc
# How it was run: as §1
# [11] = target: GlcNAc(b1-3)Fuc
# How it was run: as §1
# [12] = target: GlcNAc(b1-3)Gal
# How it was run: as §1
# [13] = target: GlcNAc(b1-3)Gal(b1-3)GalNAc
# How it was run: as §1
# [14] = target: GlcNAc(b1-3)Gal(b1-4)Glc
# How it was run: as §1
# [15] = target: GlcNAc(b1-3)Gal(b1-4)GlcNAc
# How it was run: as §1
# [16] = target: GlcNAc(b1-3)Gal(b1-4)GlcNAc(b1-2)Man(a1-3)[GlcNAc(b1-3)Gal(b1-4)GlcNAc(b1-2)Man(a1-6)]Man(b1-4)GlcNAc(b1-4)GlcNAc
# How it was run: as §1
# [17] = target: GlcNAc(b1-3)Gal(b1-4)GlcNAc(b1-2)Man(a1-3)[GlcNAc(b1-3)Gal(b1-4)GlcNAc(b1-2)Man(a1-6)]Man(b1-4)GlcNAc(b1-4)[Fuc(a1-6)]GlcNAc
# How it was run: as §1
# [18] = target: GlcNAc(b1-3)Gal(b1-4)GlcNAc(b1-2)[GlcNAc(b1-3)Gal(b1-4)GlcNAc(b1-6)]Man(a1-6)[GlcNAc(b1-3)Gal(b1-4)GlcNAc(b1-2)Man(a1-3)]Man(b1-4)GlcNAc(b1-4)GlcNAc
# How it was run: as §1
# [19] = target: GlcNAc(b1-3)Gal(b1-4)GlcNAc(b1-3)Gal(b1-4)GlcNAc
# How it was run: as §1
# [20] = target: GlcNAc(b1-3)Gal(b1-4)GlcNAc(b1-3)Gal(b1-4)GlcNAc(b1-2)Man(a1-3)[GlcNAc(b1-3)Gal(b1-4)GlcNAc(b1-3)Gal(b1-4)GlcNAc(b1-2)Man(a1-6)]Man(b1-4)GlcNAc(b1-4)GlcNAc
# How it was run: as §1
# [21] = target: GlcNAc(b1-3)Gal(b1-4)GlcNAc(b1-3)Gal(b1-4)GlcNAc(b1-2)Man(a1-3)[GlcNAc(b1-3)Gal(b1-4)GlcNAc(b1-3)Gal(b1-4)GlcNAc(b1-2)Man(a1-6)]Man(b1-4)GlcNAc(b1-4)[Fuc(a1-6)]GlcNAc
# How it was run: as §1
# [22] = target: GlcNAc(b1-3)Gal(b1-4)GlcNAc(b1-3)Gal(b1-4)GlcNAc(b1-2)[GlcNAc(b1-3)Gal(b1-4)GlcNAc(b1-3)Gal(b1-4)GlcNAc(b1-6)]Man(a1-6)[GlcNAc(b1-3)Gal(b1-4)GlcNAc(b1-3)Gal(b1-4)GlcNAc(b1-2)Man(a1-3)]Man(b1-4)GlcNAc(b1-4)[Fuc(a1-6)]GlcNAc
# How it was run: as §1
# [23] = target: GlcNAc(b1-3)Gal(b1-4)GlcNAc(b1-3)Gal(b1-4)GlcNAc(b1-3)Gal(b1-4)GlcNAc(b1-2)Man(a1-3)[GlcNAc(b1-3)Gal(b1-4)GlcNAc(b1-3)Gal(b1-4)GlcNAc(b1-3)Gal(b1-4)GlcNAc(b1-2)Man(a1-6)]Man(b1-4)GlcNAc(b1-4)GlcNAc
# How it was run: as §1
# [24] = target: GlcNAc(b1-3)Gal(b1-4)GlcNAc(b1-3)Gal(b1-4)GlcNAc(b1-3)Gal(b1-4)GlcNAc(b1-2)Man(a1-3)[GlcNAc(b1-3)Gal(b1-4)GlcNAc(b1-3)Gal(b1-4)GlcNAc(b1-3)Gal(b1-4)GlcNAc(b1-2)Man(a1-6)]Man(b1-4)GlcNAc(b1-4)[Fuc(a1-6)]GlcNAc
# How it was run: as §1
# [25] = target: GlcNAc(b1-3)Gal(b1-4)GlcNAc(b1-3)Gal(b1-4)GlcNAc(b1-3)Gal(b1-4)GlcNAc(b1-2)[GlcNAc(b1-3)Gal(b1-4)GlcNAc(b1-3)Gal(b1-4)GlcNAc(b1-3)Gal(b1-4)GlcNAc(b1-6)]Man(a1-6)[GlcNAc(b1-3)Gal(b1-4)GlcNAc(b1-3)Gal(b1-4)GlcNAc(b1-3)Gal(b1-4)GlcNAc(b1-2)Man(a1-3)]Man(b1-4)GlcNAc(b1-4)[Fuc(a1-6)]GlcNAc
# How it was run: as §1
# [26] = target: GlcNAc(b1-3)Gal(b1-4)GlcNAc(b1-3)Gal(b1-4)GlcNAc(b1-3)Gal(b1-4)GlcNAc(b1-3)Gal(b1-4)GlcNAc(b1-2)Man(a1-3)[GlcNAc(b1-3)Gal(b1-4)GlcNAc(b1-3)Gal(b1-4)GlcNAc(b1-3)Gal(b1-4)GlcNAc(b1-3)Gal(b1-4)GlcNAc(b1-2)Man(a1-6)]Man(b1-4)GlcNAc(b1-4)GlcNAc
# How it was run: as §1
# [27] = target: GlcNAc(b1-3)Gal(b1-4)GlcNAc(b1-3)Gal(b1-4)GlcNAc(b1-3)Gal(b1-4)GlcNAc(b1-3)Gal(b1-4)GlcNAc(b1-2)Man(a1-3)[GlcNAc(b1-3)Gal(b1-4)GlcNAc(b1-3)Gal(b1-4)GlcNAc(b1-3)Gal(b1-4)GlcNAc(b1-3)Gal(b1-4)GlcNAc(b1-2)Man(a1-6)]Man(b1-4)GlcNAc(b1-4)[Fuc(a1-6)]GlcNAc
# How it was run: as §1
# [28] = target: GlcNAc(b1-3)Gal(b1-4)GlcNAc(b1-3)Gal(b1-4)GlcNAc(b1-3)Gal(b1-4)GlcNAc(b1-3)Gal(b1-4)GlcNAc(b1-2)[GlcNAc(b1-3)Gal(b1-4)GlcNAc(b1-3)Gal(b1-4)GlcNAc(b1-3)Gal(b1-4)GlcNAc(b1-3)Gal(b1-4)GlcNAc(b1-6)]Man(a1-6)[GlcNAc(b1-3)Gal(b1-4)GlcNAc(b1-3)Gal(b1-4)GlcNAc(b1-3)Gal(b1-4)GlcNAc(b1-3)Gal(b1-4)GlcNAc(b1-2)Man(a1-3)]Man(b1-4)GlcNAc(b1-4)[Fuc(a1-6)]GlcNAc
# How it was run: as §1
# [29] = target: GlcNAc(b1-3)Gal(b1-4)GlcNAc(b1-3)Gal(b1-4)GlcNAc(b1-3)GalNAc
# How it was run: as §1
# [30] = target: GlcNAc(b1-3)Gal(b1-4)GlcNAc(b1-3)GalNAc
# How it was run: as §1
# [31] = target: GlcNAc(b1-3)Gal(b1-4)GlcNAc(b1-3)[GlcNAc(b1-3)Gal(b1-4)GlcNAc(b1-3)]GalNAc
# How it was run: as §1
# [32] = target: GlcNAc(b1-3)Gal(b1-4)GlcNAc(b1-6)[Gal(b1-3)]GalNAc
# How it was run: as §1
# [33] = target: GlcNAc(b1-3)Gal(b1-4)GlcNAc(b1-6)[GlcNAc(b1-3)Gal(b1-3)]GalNAc
# How it was run: as §1
# [34] = target: GlcNAc(b1-3)Gal(b1-4)GlcNAc(b1-6)[GlcNAc(b1-3)]Gal(b1-4)GlcNAc
# How it was run: as §1
# [35] = target: GlcNAc(b1-3)GalNAc
# How it was run: as §1
# [36] = target: GlcNAc(b1-3)Man
# How it was run: as §1
# [37] = target: GlcNAc(b1-3)[GlcNAc(b1-4)][GlcNAc(b1-6)]GlcNAc
# How it was run: as §1
binder,measurement,setting,value
B1,glycan array binding signal (z-score),[1],-0.222
same,glycan array binding signal (z-score),[2],-0.152
same,glycan array binding signal (z-score),[3],-0.332
same,glycan array binding signal (z-score),[4],-0.144
same,glycan array binding signal (z-score),[5],-0.329
same,glycan array binding signal (z-score),[6],-0.395
same,glycan array binding signal (z-score),[7],-0.473
same,glycan array binding signal (z-score),[8],-0.167
same,glycan array binding signal (z-score),[9],-0.121
same,glycan array binding signal (z-score),[10],-0.353
same,glycan array binding signal (z-score),[11],-0.227
same,glycan array binding signal (z-score),[12],-0.327
same,glycan array binding signal (z-score),[13],-0.14
same,glycan array binding signal (z-score),[14],-0.196
same,glycan array binding signal (z-score),[15],-0.209
same,glycan array binding signal (z-score),[16],-0.103
same,glycan array binding signal (z-score),[17],0.576
same,glycan array binding signal (z-score),[18],0.085
same,glycan array binding signal (z-score),[19],-0.231
same,glycan array binding signal (z-score),[20],1.4
same,glycan array binding signal (z-score),[21],0.445
same,glycan array binding signal (z-score),[22],0.329
same,glycan array binding signal (z-score),[23],0.019
same,glycan array binding signal (z-score),[24],0.283
same,glycan array binding signal (z-score),[25],0.185
same,glycan array binding signal (z-score),[26],0.204
same,glycan array binding signal (z-score),[27],-0.252
same,glycan array binding signal (z-score),[28],0.216
same,glycan array binding signal (z-score),[29],-0.169
same,glycan array binding signal (z-score),[30],-0.05
same,glycan array binding signal (z-score),[31],-0.169
same,glycan array binding signal (z-score),[32],-0.142
same,glycan array binding signal (z-score),[33],-0.112
same,glycan array binding signal (z-score),[34],-0.263
same,glycan array binding signal (z-score),[35],-0.133
same,glycan array binding signal (z-score),[36],-0.127
same,glycan array binding signal (z-score),[37],-0.024
